IC50 is the fitted dose that halves viability relative to control wells, and lower means more sensitive; a limit (>, <) means that the fit lies beyond the doses tested. For AUC the same curve is integrated over the 256-fold range of doses and scaled to a fraction; values near 1 show little effect. For some assays here: An inferred top dose was derived from the fitted curves, not read from the paper. For some assays here: Where an entry number is given, a second screen of the drug exists; the two often differ.
How the values were obtained:
Assay in all cases: Viability of human cancer cell lines after 72 h of drug (GDSC screen)
Tamoxifen = compound: CC/C(=C(\c1ccccc1)c1ccc(OCCN(C)C)cc1)c1ccccc1 [Tamoxifen]; conditions: top dose 5 µM
Procedure: (§1)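 Human cancer cell lines in 384-well plates, medium with 10% serum, drug for 72 h over a 256-fold dose range (nine 2-fold or five 4-fold steps up to the top dose). Adherent lines were fixed and stained with the nucleic acid dye Syto60, suspension lines read with resazurin; signal relative to control wells, capped at 0 and 100%. One two-parameter sigmoid per drug and line, fitted in a mixed model over all curves with the slope shared within a line.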

VNLG/124 = compound: CCCC(=O)OCc1ccc(OC(=O)/C=C(C)/C=C/C=C(C)/C=C/C2=C(C)CCCC2(C)C)cc1 [VNLG/124]; conditions: top dose 5.12 µM; top dose inferred
Procedure: as §1

Elesclomol = compound: CN(NC(=O)CC(=O)NN(C)C(=S)c1ccccc1)C(=S)c1ccccc1 [Elesclomol]; conditions: top dose 0.2 µM; top dose inferred
Procedure: as §1

Bleomycin = compound: Cc1c(N)nc([C@H](CC(N)=O)NC[C@H](N)C(N)=O)nc1C(=O)N[C@H](C(=O)N[C@H](C)[C@@H](O)[C@H](C)C(=O)N[C@H](C(=O)NCCc1nc(-c2nc(C(=O)NCCC[S+](C)C)cs2)cs1)[C@@H](C)O)[C@@H](OC1OC(CO)C(O)C(O)C1OC1OC(CO)C(O)C(OC(N)=O)C1O)c1cnc[nH]1 [Bleomycin]
Procedure: as §1

Masitinib = compound: Cc1ccc(NC(=O)c2ccc(CN3CCN(C)CC3)cc2)cc1Nc1nc(-c2cccnc2)cs1 [Masitinib]; conditions: top dose 20 µM
Procedure: as §1

LAQ824 = compound: O=C(/C=C/c1ccc(CN(CCO)CCc2c[nH]c3ccccc23)cc1)NO [LAQ824]; conditions: top dose 1.024 µM; top dose inferred
Procedure: as §1

OSI-930 = compound: O=C(Nc1ccc(OC(F)(F)F)cc1)c1sccc1NCc1ccnc2ccccc12 [OSI-930]; conditions: top dose 10.24 µM
Procedure: as §1

BX-912 = compound: O=C(Nc1cccc(Nc2ncc(Br)c(NCCc3cnc[nH]3)n2)c1)N1CCCC1 [BX-912]; conditions: top dose 10.24 µM; top dose inferred
Procedure: as §1

NSC-87877 = compound: O=S(=O)(O)c1ccc2cc(N=Nc3cc(S(=O)(=O)O)c4cccnc4c3O)ccc2c1 [NSC-87877]; conditions: top dose 16 µM; top dose inferred
Procedure: as §1

[1] = top dose 50 µM, screen: GDSC drug entry 1378, top dose inferred
[2] = top dose 64 µM, screen: GDSC drug entry 190

Cell Line | AUC (Tamoxifen) | IC50 (Tamoxifen) [µM] | AUC (VNLG/124) | IC50 (VNLG/124) [µM] | AUC (Elesclomol) | IC50 (Elesclomol) [µM] | AUC (Bleomycin; [1]) | IC50 (Bleomycin; [1]) [µM] | AUC (Bleomycin; [2]) | IC50 (Bleomycin; [2]) [µM] | AUC (Masitinib) | IC50 (Masitinib) [µM] | AUC (LAQ824) | IC50 (LAQ824) [µM] | AUC (OSI-930) | IC50 (OSI-930) [µM] | AUC (BX-912) | IC50 (BX-912) [µM] | AUC (NSC-87877) | IC50 (NSC-87877) [µM]
JHH-2 (liver, adherent) | 0.977 | > 5 | 0.983 | > 5.12 | 0.604 | 0.0246 | 0.649 | 8.35 | 0.977 | > 64 | 0.91 | > 20 | 0.72 | 0.285 | 0.937 | > 10.2 | 0.902 | > 10.2 | 0.891 | > 16
NCI-H838 (lung adenocarcinoma, adherent) | 0.982 | > 5 | 0.987 | > 5.12 | 0.431 | 0.00806 | 0.174 | 0.305 | 0.565 | 6.06 | 0.943 | > 20 | 0.653 | 0.174 | 0.945 | > 10.2 | 0.982 | > 10.2 | 0.959 | > 16
EW-18 (Ewing sarcoma, suspension) | 0.981 | > 5 | 0.878 | > 5.12 | 0.829 | 0.136 | 0.95 | > 50 | 0.809 | 36.3 | 0.854 | 17.5 | 0.4 | 0.0333 | 0.943 | > 10.2 | 0.387 | 0.306 | 0.982 | > 16
OMC-1 (cervix, adherent) | 0.987 | > 5 | 0.974 | > 5.12 | 0.766 | – | 0.86 | 44.9 | 0.64 | 9.97 | 0.941 | > 20 | 0.479 | 0.0559 | 0.981 | > 10.2 | 0.942 | > 10.2 | 0.988 | > 16
NCI-H1869 (lung squamous cell carcinoma, adherent) | 0.971 | > 5 | 0.985 | > 5.12 | 0.628 | 0.0295 | 0.713 | 13.6 | 0.898 | > 64 | 0.926 | > 20 | 0.637 | 0.161 | 0.966 | > 10.2 | 0.966 | > 10.2 | 0.976 | > 16
KYSE-520 (oesophagus, adherent) | 0.977 | > 5 | 0.974 | > 5.12 | 0.79 | 0.125 | 0.538 | 4.1 | 0.546 | 5.56 | 0.916 | > 20 | 0.612 | 0.145 | 0.981 | > 10.2 | 0.918 | > 10.2 | 0.98 | > 16
HuO-3N1 (osteosarcoma, adherent) | 0.971 | > 5 | 0.951 | > 5.12 | 0.61 | 0.0277 | 0.807 | 36.2 | 0.853 | > 64 | 0.944 | > 20 | 0.585 | 0.118 | 0.975 | > 10.2 | 0.849 | > 10.2 | 0.981 | > 16
SW780 (bladder, adherent) | 0.935 | > 5 | 0.978 | > 5.12 | 0.634 | – | 0.36 | 1.23 | 0.985 | > 64 | 0.979 | > 20 | 0.823 | 0.679 | 0.975 | > 10.2 | 0.934 | > 10.2 | 0.986 | > 16
H4 (glioma, adherent) | 0.98 | > 5 | 0.964 | > 5.12 | 0.419 | 0.00752 | 0.155 | 0.274 | 0.198 | 0.515 | 0.878 | > 20 | 0.492 | 0.0609 | 0.967 | > 10.2 | 0.907 | > 10.2 | 0.986 | > 16
RPMI-2650 (head and neck, adherent) | 0.978 | > 5 | 0.976 | > 5.12 | 0.648 | 0.0334 | 0.509 | 3.31 | 0.211 | 0.518 | 0.925 | > 20 | 0.398 | 0.0329 | 0.981 | > 10.2 | 0.92 | > 10.2 | 0.983 | > 16
CAL-72 (osteosarcoma, adherent) | 0.939 | > 5 | 0.984 | > 5.12 | 0.639 | 0.0326 | 0.657 | 9.27 | 0.94 | > 64 | 0.984 | > 20 | 0.694 | 0.25 | 0.98 | > 10.2 | 0.984 | > 10.2 | 0.959 | > 16
EM-2 (chronic myeloid leukaemia, suspension) | 0.919 | > 5 | 0.918 | > 5.12 | 0.915 | > 0.2 | 0.88 | > 50 | 0.874 | > 64 | 0.293 | 0.3 | 0.58 | 0.109 | 0.868 | > 10.2 | 0.712 | 2.78 | 0.981 | > 16
TGBC11TKB (stomach, adherent) | 0.979 | > 5 | 0.973 | > 5.12 | 0.967 | > 0.2 | 0.862 | 34.8 | 0.492 | 3.83 | 0.974 | > 20 | 0.583 | 0.105 | 0.967 | > 10.2 | 0.99 | > 10.2 | 0.978 | > 16
MHH-PREB-1 (B-cell leukaemia, suspension) | 0.932 | > 5 | 0.969 | > 5.12 | 0.579 | 0.0201 | 0.915 | > 50 | 0.898 | > 64 | 0.882 | 17.3 | 0.343 | 0.0247 | 0.962 | > 10.2 | 0.961 | > 10.2 | 0.981 | > 16
CPC-N (small cell lung carcinoma, suspension) | 0.926 | > 5 | 0.985 | > 5.12 | 0.961 | > 0.2 | 0.897 | > 50 | 0.837 | 48.5 | 0.922 | > 20 | 0.424 | 0.0389 | 0.974 | > 10.2 | 0.862 | 10.1 | 0.978 | > 16
KLE (endometrium, adherent) | 0.953 | > 5 | 0.965 | > 5.12 | 0.854 | > 0.2 | 0.859 | > 50 | 0.627 | 10.9 | 0.902 | > 20 | 0.507 | 0.0676 | 0.975 | > 10.2 | 0.924 | > 10.2 | 0.977 | > 16
NCI-H211 (small cell lung carcinoma, adherent) | 0.977 | > 5 | 0.981 | > 5.12 | 0.973 | > 0.2 | 0.842 | 33.7 | 0.405 | 2.22 | 0.825 | 11.5 | 0.223 | 0.0102 | 0.983 | > 10.2 | 0.768 | 3.73 | 0.973 | > 16
MC116 (B-cell lymphoma, suspension) | 0.997 | > 5 | 0.999 | > 5.12 | 0.997 | > 0.2 | 0.99 | > 50 | 0.391 | 2.18 | 0.927 | 14.2 | 0.341 | 0.0265 | 0.999 | > 10.2 | 0.629 | 1.31 | 0.999 | > 16
HD-MY-Z (Hodgkin lymphoma, adherent) | 0.984 | > 5 | 0.97 | > 5.12 | 0.387 | 0.00609 | 0.133 | 0.214 | 0.238 | 0.697 | 0.863 | 17.4 | 0.711 | 0.254 | 0.945 | > 10.2 | 0.819 | 5.89 | 0.972 | > 16
NCI-H1048 (small cell lung carcinoma, adherent) | 0.989 | > 5 | 0.988 | > 5.12 | 0.537 | 0.0156 | 0.478 | 2.73 | 0.344 | 1.55 | 0.879 | 17 | 0.733 | 0.272 | 0.948 | > 10.2 | 0.7 | 2.18 | 0.985 | > 16
P12-ICHIKAWA (T-cell lymphoblastic leukaemia, suspension) | 0.994 | > 5 | 0.958 | > 5.12 | 0.933 | > 0.2 | 0.951 | > 50 | 0.467 | 3.32 | 0.878 | 12.7 | 0.294 | 0.0197 | 0.964 | > 10.2 | 0.204 | 0.114 | 0.991 | > 16
NCI-H1435 (lung adenocarcinoma, semi-adherent) | 0.992 | > 5 | 0.992 | > 5.12 | 0.972 | > 0.2 | 0.958 | > 50 | 0.445 | 2.88 | 0.971 | > 20 | 0.597 | 0.114 | 0.991 | > 10.2 | 0.992 | > 10.2 | 0.993 | > 16
SK-ES-1 (Ewing sarcoma, semi-adherent) | 0.979 | > 5 | 0.902 | > 5.12 | 0.605 | 0.0247 | 0.603 | 6.13 | 0.252 | 0.733 | 0.933 | > 20 | 0.413 | 0.0364 | 0.93 | > 10.2 | 0.632 | 1.52 | 0.984 | > 16
DK-MG (glioma, adherent) | 0.975 | > 5 | 0.978 | > 5.12 | 0.556 | 0.0191 | 0.567 | 5.19 | 0.866 | > 64 | 0.739 | 8.62 | 0.791 | 0.74 | 0.774 | 6.18 | 0.605 | 1.43 | 0.966 | > 16
CCF-STTG1 (glioma, adherent) | 0.987 | > 5 | 0.988 | > 5.12 | 0.842 | 0.142 | 0.48 | 2.76 | 0.534 | 4.94 | 0.825 | 12.1 | 0.617 | 0.134 | 0.965 | > 10.2 | 0.988 | > 10.2 | 0.938 | > 16
SUIT-2 (pancreas, adherent) | 0.985 | > 5 | 0.98 | > 5.12 | 0.61 | 0.0254 | 0.76 | 18.5 | 0.322 | 1.24 | 0.928 | > 20 | 0.526 | 0.0757 | 0.967 | > 10.2 | 0.906 | > 10.2 | 0.986 | > 16

Source: the supplement of paper PMC4967469
